Measurements published in PubChem BioAssay AID1671188 (National Center for Advancing Translational Sciences (NCATS), 2021).
Screen size: about 100,000 compounds; about 250 (0.25%) were called active. Inconclusive results, whose numbers are uncertain, are shown with a selection of clear calls. The call rests on the fitted dose curve; in most records, active means well fitted inhibition curve with a large enough effect; inconclusive means small, poorly fitted or top-dose-only effect; inactive means flat fitted curve, though single readings scatter. Potencies of inconclusive entries are left out as doubtful fits.
Further: nearly all actives have a fitted effect of over 60% in size.
Potency means the concentration at half of the fitted maximal effect; tags describe the fitted curve by direction and shape.

Each compound was assayed against Alanine aminotransferase 2 (Homo sapiens) (UniProt Q8TD30) (assay: Primary qHTS assay for inhibitors of Glutamate pyruvate transaminase 2 (GPT2)). Settings: Recombinant GPT2, coupled pyruvate oxidase/HRP Amplex Red fluorescence; series mostly up to 57.7 µM.
UniProt Q8TD30, sequence (Q8TD30 whole entry, looked up): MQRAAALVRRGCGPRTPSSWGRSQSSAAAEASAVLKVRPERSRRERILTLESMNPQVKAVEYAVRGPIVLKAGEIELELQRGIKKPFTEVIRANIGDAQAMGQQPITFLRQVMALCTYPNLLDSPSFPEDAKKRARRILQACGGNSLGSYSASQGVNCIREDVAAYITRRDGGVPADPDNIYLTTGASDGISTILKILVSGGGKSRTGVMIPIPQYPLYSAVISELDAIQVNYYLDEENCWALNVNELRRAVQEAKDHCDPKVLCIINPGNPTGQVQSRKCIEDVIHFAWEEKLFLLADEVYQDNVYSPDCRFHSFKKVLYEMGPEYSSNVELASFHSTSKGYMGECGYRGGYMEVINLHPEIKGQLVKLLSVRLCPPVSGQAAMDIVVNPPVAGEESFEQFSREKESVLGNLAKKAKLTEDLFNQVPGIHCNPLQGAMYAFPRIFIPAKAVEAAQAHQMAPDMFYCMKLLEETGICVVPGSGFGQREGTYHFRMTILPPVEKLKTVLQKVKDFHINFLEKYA
Method in brief: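 GPT2 10ng/uL, a-KG 250uM, L-Ala 2mM, HEPES pH7.5 + 0.0001% Tween; 30 min RT. Then Amplex mix (PO/HRP/ThPP), 30 min RT dark, fluorescence. AOA 50uM used as positive control.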
In the case of `COc1ccc(C(=O)N2C[C@@H](CO)[C@H](c3ccccn3)C2)cn1`, the Potency is reported as inconclusive [inhibitor, single point].
In the case of `CC(C)Cn1c(=O)c(C(=O)N2CCC(c3ccccc3)CC2)nc2cccnc21`, the Potency is reported as “inactive”.
`CC(C)S(=O)(=O)N1CCC2(CC1)CC(N1CCN(c3ccccn3)CC1)CCO2` (stereo unspecified) was tested, and the Potency was inconclusive [inhibitor, single point].
In the case of `C[C@@H](NC(=O)NC(C)(C)C)c1onc(-c2ccc(Cl)cc2)c1C(=O)O`, the Potency is reported as “inactive”.
For `O=C(C[C@@H]1CCNC[C@@H]1Cc1cc(-c2ccccc2)on1)NCc1ccccc1`, the Potency was inconclusive [inhibitor, full curve, poor fit].
For `CCCCCCCCOc1ccccc1C(=O)Nc1ccc(C(=O)OCC[N+](C)(CC)CC)cc1`, the Potency was “inactive”.
For `Cc1n[nH]c(C)c1CNC(=O)CCC[C@H]1NC[C@@H]2C[C@H]1CN(Cc1ccccc1)C2`, the Potency was inconclusive [inhibitor, full curve, poor fit].
With `O=C1Nc2ccc(-c3ccccc3)cc2C(=O)N2C[C@H](O)C[C@@H]12` the Potency was inconclusive [inhibitor, full curve].
In the case of `O=C(NCc1cccs1)c1nc2cccnc2n(C2CC2)c1=O`, the Potency is reported as inconclusive [inhibitor, single point].
With `COCCn1c(=O)c(C(=O)NCCCc2ccccc2)nc2cccnc21` the Potency was inconclusive [inhibitor, single point].
`COc1ccc(NC(C)(C)C(=O)N2CCC3(CCN(C)CC3)C2)cc1` was tested, and the Potency was inconclusive [inhibitor, partial curve, poor fit].
In the case of `Cc1noc2c(-c3cccnc3NCCN3CCOCC3)cc(-c3ccccc3)nc12`, the Potency is reported as “inactive”.
`O=C(NC1CCCCCC1)c1ccc2nc(-c3cccnc3Cl)oc2c1` was tested, and the Potency was inconclusive [inhibitor, single point].
For `Cc1nc2ccc(C(=O)N3C[C@@H]4CCN(C)C[C@]4(C(=O)O)C3)cc2s1`, the Potency was inconclusive [inhibitor, single point].
With `O=C(Cc1ccsc1)Nc1ccc2c(N3CCCC3)ncnc2c1` the Potency was “inactive”.
In the case of `CC(C)c1noc(-c2cccn3c(CNC(=O)c4cc(F)ccc4Cl)nnc23)n1`, the Potency is reported as “inactive”.
In the case of `COc1ccc(Nc2cnc3ccc(-c4cccc(CO)c4)nn23)cn1`, the Potency is reported as inconclusive [inhibitor, partial curve, poor fit].
For `NC1C[C@H](Cn2cc(-c3cccnc3)nn2)[C@@H](O)[C@H]1O` (stereo partly specified), the Potency was inconclusive [inhibitor, single point].
`CC(=O)Nc1ccc(NC(=O)C2c3ccccc3C(=O)N(C3CCCC3)C23CCCC3)cc1` (stereo unspecified) was tested, and the Potency was inconclusive [inhibitor, partial curve, poor fit].
`CC1C=CC(C)N1c1ncnc2c1CN(C1CCNC1)C(=O)CN2C` (stereo unspecified) was tested, and the Potency was inconclusive [inhibitor, single point].
For `O=C1COc2ccc(-c3cccc(O)c3)nc2CN1CCOc1ccccc1`, the Potency was “inactive”.
With `OC[C@H]1O[C@@H](Oc2ccc(O)c3cccc(O)c23)[C@H](O)[C@@H](O)[C@@H]1O` the Potency was inconclusive [inhibitor, full curve, poor fit].
With `Cc1ccn2c(C(=O)N3CCC4(CC3)Nc3ccccc3NC4=O)nnc2n1` the Potency was inconclusive [inhibitor, partial curve, poor fit].
In the case of `CN1CC(=O)N(C2CCCNC2)Cc2c1ncnc2N1CCN(c2ncccn2)CC1` (stereo unspecified), the Potency is reported as “inactive”.
With `CN1c2cc(C(=O)N3CCOCC3)ccc2OCC1CC(=O)NC(C)(C)C` (stereo unspecified) the Potency was inconclusive [inhibitor, full curve, poor fit].
`Cc1cnc(CN2CC3(CCC2=O)CCN(C(=O)[C@H]2C[C@@H]4C=C[C@H]2C4)CC3)cn1` was tested, and the Potency was inconclusive [inhibitor, single point].
With `O=C(Nc1ccccc1)N1CCC(C(=O)N2CCC(c3nc4ncccc4[nH]3)CC2)C1` (stereo unspecified) the Potency was inconclusive [inhibitor, single point].
With `COC(=O)C1=C(C)N=C2SC=C(CC(=O)NCc3cccc(F)c3)N2C1c1ccccc1OC` (stereo unspecified) the Potency was inconclusive [inhibitor, single point].
For `Cc1cc2nc3n(c(=O)c2n1CC(=O)Nc1ccc2c(c1)OCO2)CCCC3`, the Potency was “inactive”.
With `Cc1oc2ccn(Cc3cccc(F)c3)c(=O)c2c1C(=O)NC(C)c1ccccn1` (stereo unspecified) the Potency was “inactive”.
`Cc1cnc(CC2CCN(C(=O)N(C)C)C2)n1CC1CC1` (stereo unspecified) was tested, and the Potency was inconclusive [inhibitor, single point].
For `Cc1nn(-c2ccccc2)nc1C(=O)N[C@H](C)c1onc(-c2ccc(F)cc2)c1C(=O)O`, the Potency was inconclusive [inhibitor, full curve, poor fit].
In the case of `O=C(NC1CC1)c1ccccc1OCC1CCCN(C2CCCCC2)C1` (stereo unspecified), the Potency is reported as inconclusive [inhibitor, single point].
For `Cc1oc(-c2cccc(Oc3ccccc3)c2)nc1CN(C)CCCO`, the Potency was inconclusive [inhibitor, single point].
In the case of `Cc1ccc(CN2CCc3nc(C(C)C)nc(-c4ccc(O)cc4)c3C2)cc1`, the Potency is reported as inconclusive [inhibitor, full curve, poor fit].
With `O=C(Nc1cccc(-n2cccn2)c1)C1CCCN(Cc2cccc(F)c2F)C1` (stereo unspecified) the Potency was inconclusive [inhibitor, single point].
For `Cn1cc(-c2cnc(Nc3ccc(N4CCOCC4)cc3)c3c2CCO3)cn1`, the Potency was inconclusive [inhibitor, full curve, poor fit].
For `Cc1noc(C)c1S(=O)(=O)N1CCCC2(C1)Nc1cccnc1NC2=NC1CCCC1` (stereo unspecified), the Potency was inconclusive [inhibitor, partial curve, poor fit].
For `CC(C)NC(=O)N1CCOc2ccc(CCC(=O)NCCc3cccnc3)cc2C1`, the Potency was “inactive”.
For `COc1ncccc1Nc1cnc2ccc(-c3ccc(F)cc3)nn12`, the Potency was inconclusive [inhibitor, single point].
For `COc1cc(OC)cc(C(=O)N2[C@@H]3CC[C@H]2CC(NC(=O)c2ccc(F)cc2)C3)c1` (stereo partly specified), the Potency was inconclusive [inhibitor, single point].
